Experimental data: ChEMBL document CHEMBL4689842, “EUbOPEN Chemogenomics Library wave 1” (2021)
Certain results were filed several times, with different values. Only these are listed. An entry can have further records. The records of an entry repeat one measurement (runs, samples, wells, individuals or studies).

Assays:
Format in all cases: toxicity, cell-based
U2OS = assay: Multiplex assay against U2OS; details: human
Summary of the method: (§1)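 Live cells carried four stains from seeding: Hoechst33342, BioTracker Green Microtubule Cytoskeleton Dye, MitoTracker Red and Annexin V Alexa Fluor 680. They were imaged on a CQ1 microscope at 37°C and 5% CO2 after compound addition. Using CellPathfinder machine-learning gating, cells were split into Hoechst high-intensity objects or normal cells, normal cells into healthy, pyknosed or fragmented nuclei, and pyknosed cells into mitotic or apoptotic; tubulin, mitochondrial-mass and membrane-permeability phenotypes are per cents of healthy-nucleus cells.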

Fibroblast = assay: Multiplex assay against human fibroblast; summary of the method: as §1
HEK-293T = assay: Multiplex assay against HEK293T; details: human; summary of the method: as §1;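 on Population Tubulin-Different-Phenotype (%): share of the cells with healthy nuclei that show this phenotype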
[1] = 12 h, 1 µM, compound concentration 1 uM, replicate 1
[2] = 12 h, 1 µM, compound concentration 1 uM, replicate 2
[3] = 12 h, 10 µM, compound concentration 10 uM, replicate 1
[4] = 12 h, 10 µM, compound concentration 10 uM, replicate 2
[5] = 24 h, 1 µM, compound concentration 1 uM, replicate 1
[6] = 24 h, 1 µM, compound concentration 1 uM, replicate 2
[7] = 24 h, 10 µM, compound concentration 10 uM, replicate 1
[8] = 24 h, 10 µM, compound concentration 10 uM, replicate 2
[9] = 48 h, 1 µM, compound concentration 1 uM, replicate 2
[10] = 48 h, 10 µM, compound concentration 10 uM, replicate 2

O=C(NCCCC1CCCCC1)c1ccc(CNC(=O)c2cnn(-c3ccccc3)c2C(F)(F)F)cc1 [SR-321]
Population Fragmented Nuclei (%) (U2OS; [1]): 11%, 12%, 1%
Population Mitochondria Different-Phenotype (%) (U2OS; [1]): 5%, 11%, 31%
Population Apoptotic (%) (U2OS; [2]): 66%, 0%, 50%
Population Fragmented Nuclei (%) (U2OS; [2]): 5, 40, 10, 4%
Population Mitochondria Different-Phenotype (%) (U2OS; [2]): 10, 20, 2, 27%
Population Mitotic Cells (%) (U2OS; [2]): 33%, 100%, 50%
Population Membrane Permeable-Phenotype (%) (U2OS; [3]): 6, 4, 2, 21%
Population Apoptotic (%) (U2OS; [4]): 20, 50, 18, 11%
Population Fragmented Nuclei (%) (U2OS; [4]): 21%, 17%, 4%
Population Hoechst High Intensity Objects (%) (U2OS; [4]): 26, 5, 8, 7%
Population Mitochondria Different-Phenotype (%) (U2OS; [4]): 22, 33, 2, 26%
Population Pyknosed Nuclei (%) (U2OS; [4]): 6%, 20%, 9%
Population Tubulin-Different-Phenotype (%) (U2OS; [4]): 9, 23, 5, 10%
Population Hoechst High Intensity Objects (%) (U2OS; [5]): 5%, 3%, 1%
Population Mitochondria Different-Phenotype (%) (U2OS; [5]): 4%, 5%, 29%
Population Apoptotic (%) (U2OS; [6]): 0% and 60%
Population Fragmented Nuclei (%) (U2OS; [6]): 29%, 10%, 3%
Population Hoechst High Intensity Objects (%) (U2OS; [6]): 14, 4, 10, 2%
Population Pyknosed Nuclei (%) (U2OS; [6]): 3%, 14%, 2%
Population Fragmented Nuclei (%) (U2OS; [7]): 12, 8, 11, 3%
Population Apoptotic (%) (U2OS; [8]): 50%, 33%, 11%
Population Fragmented Nuclei (%) (U2OS; [8]): 20%, 16%, 6%
Population Hoechst High Intensity Objects (%) (U2OS; [8]): 6, 18, 7, 3%
Population Membrane Permeable-Phenotype (%) (U2OS; [8]): 10%, 1%, 11%
Population Mitochondria Different-Phenotype (%) (U2OS; [8]): 23, 14, 5, 21%
Population Tubulin-Different-Phenotype (%) (U2OS; [8]): 26%, 5%, 16%
Population Apoptotic (%) (U2OS; [9]): 70%, 0%, 28%
Population Mitotic Cells (%) (U2OS; [9]): 30%, 100%, 71%
Population Hoechst High Intensity Objects (%) (U2OS; [10]): 17%, 5%, 8%
Population Pyknosed Nuclei (%) (U2OS; [10]): 20%, 6%, 16%
Population Membrane Permeable-Phenotype (%) (Fibroblast; [1]): 21, 20, 25, 3%
Population Tubulin-Different-Phenotype (%) (Fibroblast; [1]): 39, 33, 51, 2%
Population Apoptotic (%) (Fibroblast; [2]): 66, 0, 50, 100%
Population Fragmented Nuclei (%) (Fibroblast; [2]): 5, 40, 10, 73%
Population Healthy Nuclei (%) (Fibroblast; [2]): 89, 53, 83, 21%
Population Hoechst High Intensity Objects (%) (Fibroblast; [2]): 8, 21, 7, 43%
Population Mitochondria Different-Phenotype (%) (Fibroblast; [2]): 10, 20, 2, 11%
Population Mitotic Cells (%) (Fibroblast; [2]): 33, 100, 50, 0%
Population Tubulin-Different-Phenotype (%) (Fibroblast; [2]): 20%, 26%, 0%
Population Membrane Permeable-Phenotype (%) (Fibroblast; [3]): 32, 22, 21, 9%
Population Mitochondria Different-Phenotype (%) (Fibroblast; [3]): 13, 25, 11, 5%
Population Tubulin-Different-Phenotype (%) (Fibroblast; [3]): 39, 52, 72, 14%
Population Apoptotic (%) (Fibroblast; [4]): 20%, 18%, 55%
Population Fragmented Nuclei (%) (Fibroblast; [4]): 21, 17, 9, 50%
Population Hoechst High Intensity Objects (%) (Fibroblast; [4]): 26, 5, 8, 29%
Population Mitochondria Different-Phenotype (%) (Fibroblast; [4]): 22, 33, 2, 7%
Population Pyknosed Nuclei (%) (Fibroblast; [4]): 6, 15, 20, 12%
Population Tubulin-Different-Phenotype (%) (Fibroblast; [4]): 9, 23, 5, 40%
Population Membrane Permeable-Phenotype (%) (Fibroblast; [5]): 30, 23, 22, 7%
Population Tubulin-Different-Phenotype (%) (Fibroblast; [5]): 40, 46, 56, 1%
Population Apoptotic (%) (Fibroblast; [6]): 0%, 60%, 40%
Population Fragmented Nuclei (%) (Fibroblast; [6]): 29, 10, 11, 67%
Population Healthy Nuclei (%) (Fibroblast; [6]): 66, 82, 74, 25%
Population Hoechst High Intensity Objects (%) (Fibroblast; [6]): 14, 4, 10, 43%
Population Pyknosed Nuclei (%) (Fibroblast; [6]): 3%, 7%, 14%
Population Tubulin-Different-Phenotype (%) (Fibroblast; [6]): 30%, 15%, 0%
Population Membrane Permeable-Phenotype (%) (Fibroblast; [7]): 25, 18, 16, 6%
Population Mitochondria Different-Phenotype (%) (Fibroblast; [7]): 27, 18, 28, 2%
Population Tubulin-Different-Phenotype (%) (Fibroblast; [7]): 54, 63, 78, 14%
Population Hoechst High Intensity Objects (%) (Fibroblast; [8]): 6, 18, 7, 36%
Population Mitochondria Different-Phenotype (%) (Fibroblast; [8]): 23, 14, 5, 4%
Population Tubulin-Different-Phenotype (%) (Fibroblast; [8]): 26, 9, 5, 23%
Population Apoptotic (%) (Fibroblast; [9]): 100% and 0%
Population Membrane Permeable-Phenotype (%) (Fibroblast; [10]): 25%, 16%, 8%
Population Mitotic Cells (%) (Fibroblast; [10]): 50% and 0%
Population Pyknosed Nuclei (%) (Fibroblast; [10]): 4%, 1%, 3%
Population Mitochondria Different-Phenotype (%) (HEK-293T; [1]): 75, 60, 74, 3%
Population Pyknosed Nuclei (%) (HEK-293T; [1]): 60%, 51%, 16%
Population Tubulin-Different-Phenotype (%) (HEK-293T; [1]): 32, 25, 37, 2%
Population Pyknosed Nuclei (%) (HEK-293T; [2]): 58, 53, 50, 4%
Population Tubulin-Different-Phenotype (%) (HEK-293T; [2]): 13, 20, 17, 5%
Total Cell Count (HEK-293T; [2]): 190, 170, 173, 1739
Population Healthy Nuclei (%) (HEK-293T; [3]): 16, 22, 24, 69%
Population Mitochondria Different-Phenotype (%) (HEK-293T; [3]): 88, 84, 83, 9%
Population Pyknosed Nuclei (%) (HEK-293T; [3]): 66, 60, 63, 21%
Population Tubulin-Different-Phenotype (%) (HEK-293T; [3]): 41, 43, 50, 9%
Population Apoptotic (%) (HEK-293T; [4]): 13, 28, 20, 3%
Population Fragmented Nuclei (%) (HEK-293T; [4]): 3, 8, 10, 4%
Population Mitochondria Different-Phenotype (%) (HEK-293T; [4]): 37, 31, 40, 12%
Population Pyknosed Nuclei (%) (HEK-293T; [4]): 58, 59, 54, 7%
Total Cell Count (HEK-293T; [4]): 220, 207, 193, 1414
Population Apoptotic (%) (HEK-293T; [5]): 40, 45, 41, 14%
Population Mitochondria Different-Phenotype (%) (HEK-293T; [5]): 46, 45, 63, 2%
Population Pyknosed Nuclei (%) (HEK-293T; [5]): 43, 46, 48, 6%
Population Tubulin-Different-Phenotype (%) (HEK-293T; [5]): 28, 22, 41, 3%
Population Apoptotic (%) (HEK-293T; [6]): 17%, 10%, 5%
Population Fragmented Nuclei (%) (HEK-293T; [6]): 8%, 4%, 27%
Population Mitochondria Different-Phenotype (%) (HEK-293T; [6]): 4%, 9%, 1%
Population Pyknosed Nuclei (%) (HEK-293T; [6]): 26, 29, 34, 1%
Total Cell Count (HEK-293T; [6]): 222, 237, 264, 2967
Population Healthy Nuclei (%) (HEK-293T; [7]): 23%, 17%, 81%
Population Hoechst High Intensity Objects (%) (HEK-293T; [7]): 18, 19, 14, 6%
Population Mitochondria Different-Phenotype (%) (HEK-293T; [7]): 88%, 85%, 5%
Population Pyknosed Nuclei (%) (HEK-293T; [7]): 59, 62, 57, 10%
Total Cell Count (HEK-293T; [7]): 269, 307, 244, 864
Population Apoptotic (%) (HEK-293T; [8]): 26%, 18%, 4%
Population Fragmented Nuclei (%) (HEK-293T; [8]): 5, 7, 4, 17%
Population Membrane Permeable-Phenotype (%) (HEK-293T; [8]): 2%, 3%, 14%
Population Mitochondria Different-Phenotype (%) (HEK-293T; [8]): 43, 46, 47, 3%
Population Pyknosed Nuclei (%) (HEK-293T; [8]): 49, 36, 44, 3%
Total Cell Count (HEK-293T; [8]): 249, 248, 279, 2237
